From article PMC4336329 (PLoS ONE, 2015)
Out of some 310,000 compounds screened, about 2,200 (0.71%) showed an effect of 50% or more. The effect is printed as a negative number. The list shows a part of the results.

Each compound was assayed against human ether-à-go-go-related gene (hERG) potassium channel (human, UniProt Q12809) (assay: primary screen, population patch clamp on CHO cells stably expressing hERG).
Sequence of human ether-à-go-go-related gene (hERG) potassium channel (Q12809 whole entry, looked up): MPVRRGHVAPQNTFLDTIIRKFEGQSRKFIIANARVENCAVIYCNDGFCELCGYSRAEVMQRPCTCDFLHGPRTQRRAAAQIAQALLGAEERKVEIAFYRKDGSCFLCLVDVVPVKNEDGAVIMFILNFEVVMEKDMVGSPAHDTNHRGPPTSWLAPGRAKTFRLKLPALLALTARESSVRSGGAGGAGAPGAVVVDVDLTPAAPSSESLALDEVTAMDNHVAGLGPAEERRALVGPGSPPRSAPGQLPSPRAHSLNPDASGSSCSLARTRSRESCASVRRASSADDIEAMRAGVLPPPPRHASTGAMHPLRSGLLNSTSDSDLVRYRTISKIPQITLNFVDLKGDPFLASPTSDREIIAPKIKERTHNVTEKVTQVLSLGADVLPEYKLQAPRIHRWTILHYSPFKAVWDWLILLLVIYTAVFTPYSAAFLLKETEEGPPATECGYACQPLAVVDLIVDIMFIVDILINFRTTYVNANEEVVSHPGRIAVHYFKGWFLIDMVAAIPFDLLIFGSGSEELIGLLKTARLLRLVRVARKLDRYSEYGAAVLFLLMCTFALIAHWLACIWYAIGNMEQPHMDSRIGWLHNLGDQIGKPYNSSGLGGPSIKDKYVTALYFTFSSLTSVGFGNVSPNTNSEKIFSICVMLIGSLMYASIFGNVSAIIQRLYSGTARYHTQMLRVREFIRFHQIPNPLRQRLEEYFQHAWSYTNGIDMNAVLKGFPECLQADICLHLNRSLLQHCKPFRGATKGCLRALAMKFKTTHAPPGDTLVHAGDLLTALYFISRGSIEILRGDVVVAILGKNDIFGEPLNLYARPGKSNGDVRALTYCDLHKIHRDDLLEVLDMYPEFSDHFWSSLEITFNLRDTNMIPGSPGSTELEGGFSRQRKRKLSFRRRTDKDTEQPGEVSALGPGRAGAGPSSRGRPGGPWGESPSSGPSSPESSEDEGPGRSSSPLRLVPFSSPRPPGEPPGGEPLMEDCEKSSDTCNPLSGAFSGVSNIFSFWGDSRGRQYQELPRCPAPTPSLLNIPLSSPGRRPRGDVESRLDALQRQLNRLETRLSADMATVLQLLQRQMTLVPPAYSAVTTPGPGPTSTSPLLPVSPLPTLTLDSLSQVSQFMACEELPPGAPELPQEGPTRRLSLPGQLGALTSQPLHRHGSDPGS

SMILES	hERG current change (%, negative = inhibition) at 1uM
COc1ccc(N=C2CCCN2CC(N)=O)cc1.Cl	2.76%
COc1ccc(C(=O)Nc2cc3c4c(c2)C(C)C(=O)N4CCC3)cc1OC (centres unmarked)	1.64%
NC(=O)C1CCN(C(=O)CC2C(=O)NCCN2Cc2cccc(Oc3ccccc3)c2)CC1 (centres unmarked)	9.04%
Nc1ccc(C(=O)OCc2nc3cc4ccccc4cc3[nH]2)cc1	15.8%
CCOC(=O)c1sc(NC(=O)c2cc3n(n2)C(C(F)(F)F)CC(c2cccs2)N3)c(C(=O)OCC)c1C (centres unmarked)	5.02%
CCOc1cccc2sc(N(CCN(CC)CC)C(=O)c3ccc(S(=O)(=O)N4CCCC4)cc3)nc12.Cl	-6.23%
CCn1cc(C(=O)N2CCCC2)c(=O)c2cc(S(=O)(=O)N3CCOCC3)ccc21	13.2%
C=C1CCN([C@H](C(=O)Nc2ccc(OC)cc2)C(C)C)S(=O)(=O)c2ccccc21	3.63%
COc1ccc(Cl)c2sc(N3CCN(C(=O)C4=COCCO4)CC3)nc12	-2.18%
O=C(NC(=S)Nc1ccc(CN2CCOCC2)cc1)c1ccccc1[N+](=O)[O-]	5.86%
CCOC(CNC(=O)C1CCN(S(=O)(=O)c2ccc3nc4c(c(C(=O)O)c3c2)CC(C)CC4)CC1)OCC (centres unmarked)	8.7%
COc1ccc2[nH]c(C(=O)N/N=C/c3ccccc3OC)cc2c1	15.8%
CCCCn1c(N)c(N(CCC(C)C)C(=O)c2cc(-c3ccco3)nc3ccccc23)c(=O)[nH]c1=O	13.3%
Cc1cccc(OCC(=O)O/N=C(\N)c2ccccn2)c1	14.7%
COCCNC(=O)CCc1c(C)nc2c(c(C)nn2-c2ccc(C)c(C)c2)c1C	11.9%
Cc1ccccc1C(=O)c1cccn1CC(=O)NC(C)c1ccccc1 (centres unmarked)	15.1%
N#Cc1cccc(C#N)c1N1CCC(C#N)CC1	8.75%
O=[N+]([O-])c1ccc(N2CCN(Cc3cccc([N+](=O)[O-])c3)CC2)cc1	-18%
COc1ccc(C(=O)NC(=O)Nc2cc(C)ccn2)cc1	7.47%
Cc1c(N=C2NC(=O)C(CC(=O)Nc3ccccc3)S2)c(=O)n(-c2ccccc2)n1C (centres unmarked)	4.34%
CN(Cc1ccccc1)C(=O)c1[nH]cnc1C(=O)N[C@@H](Cc1ccccc1)C(=O)OCc1ccccc1	12.2%
CCC1(c2ccc(F)cc2)NC(=O)N(CC(=O)N2CCc3ccccc3C2)C1=O (centres unmarked)	5.78%

SMILES	hERG current change (%, negative = inhibition) at 1uM
CCCOC(=O)Nc1ccc(N2CCCCC2)cc1	0.301%
COc1ccc(S(=O)(=O)c2nnn(-c3cccc(Cl)c3)c2N)cc1	12.4%
CC(=O)Nc1ccc(C(=O)CSc2ncn(-c3ccccc3)n2)cc1	8.53%
CCn1c(SC)nnc1C1CCCN(CC(=O)Nc2ccccc2N2CCOCC2)C1 (centres unmarked)	0.921%
CC(=O)N1N=C2c3ccccc3CCC2C1c1cccs1 (centres unmarked)	10.8%
O=C(Nc1cnn(Cc2ccc(Cl)cc2)c1)c1cccs1	0.901%
CC(=O)Nc1nc(-c2ccc3c(c2)CC(C)N3C(=O)C2CC2)c(C)s1 (centres unmarked)	5.69%
O=C1c2ccccc2NC(c2ccc(-c3cccs3)o2)N1O (centres unmarked)	1.4%
COC(=O)C1=C(C)N(Cc2ccccc2)C(=O)N[C@H]1c1cccs1	9.04%
CC1CCN(CCc2nc3cc(NC(=O)NC4CCCCC4)ccc3n2C)CC1	-6.23%
COc1ccccc1NS(=O)(=O)c1cccc(NC(=O)C2CC(=O)N(Cc3ccccc3)C2)c1 (centres unmarked)	13.6%
O=C(COC(=O)c1cc(NS(=O)(=O)c2cccs2)ccc1O)Nc1cc(Cl)ccc1Cl	11.7%
Cc1nn2c(N)csc2nc1=O	0.607%
O=[N+]([O-])c1ccc(/C=N/Nc2nc(NCc3ccccc3)nc(N3CCOCC3)n2)cc1	9.85%
Cc1nn(-c2ccccc2)c(C)c1NC(=O)COC(=O)c1ccc(O)cc1O	1.74%
Cc1cc(-c2nnc(-c3cccc(Cl)c3)o2)no1	-0.554%
N=C1C(c2nc3ccccc3[nH]2)=C(O)CN1NC(=O)c1c[nH]c2ccccc12	7.66%
O=C(CNCC1CCCO1)Nc1ccc([N+](=O)[O-])cc1C(=O)Nc1ccccc1F (centres unmarked)	4.9%
O=C(Cc1c[nH]c2ccccc12)Nc1ccccc1N1CCOCC1	10.2%
COc1ccc(N2CN=C3SCC(=O)N3C2)cc1	15.7%
CC(=O)c1ccc(NC(=O)c2onc(C)c2Cl)cc1	14%
COc1ccc(NC(=O)CSC2=C(C#N)C(c3ccco3)C(C(=O)Nc3nc4ccccc4s3)=C(C)N2)cc1 (centres unmarked)	16.3%
